{
  "source": "PubChem BioAssay AID1460",
  "about": "(National Center for Advancing Translational Sciences (NCATS), 2008)",
  "note": "Values joined by “and” are separate entries in the source; they are usually repeats but may differ in a detail not shown here. Identical values can stand only once. Out of some 270,000 compounds screened, about 5,800 (2.1%) were called active. Inconclusive means that the source gave no clear call. Such entries were picked first, then a sample of the others. Calls come from the whole dose curve; as a rule, active = well fitted inhibition curve with a large enough effect; inconclusive = small, poorly fitted or top-dose-only effect; inactive = flat fitted curve, though single readings scatter. A potency beside an inconclusive call is a rough fit, not a confirmed value. Potency is the fitted concentration of half-maximal effect; tags give direction and shape of the fitted curve.",
  "data": [
    {"target": "Microtubule-associated protein tau (Homo sapiens) (UniProt P10636)", "sequence (P10636 whole entry, looked up)": "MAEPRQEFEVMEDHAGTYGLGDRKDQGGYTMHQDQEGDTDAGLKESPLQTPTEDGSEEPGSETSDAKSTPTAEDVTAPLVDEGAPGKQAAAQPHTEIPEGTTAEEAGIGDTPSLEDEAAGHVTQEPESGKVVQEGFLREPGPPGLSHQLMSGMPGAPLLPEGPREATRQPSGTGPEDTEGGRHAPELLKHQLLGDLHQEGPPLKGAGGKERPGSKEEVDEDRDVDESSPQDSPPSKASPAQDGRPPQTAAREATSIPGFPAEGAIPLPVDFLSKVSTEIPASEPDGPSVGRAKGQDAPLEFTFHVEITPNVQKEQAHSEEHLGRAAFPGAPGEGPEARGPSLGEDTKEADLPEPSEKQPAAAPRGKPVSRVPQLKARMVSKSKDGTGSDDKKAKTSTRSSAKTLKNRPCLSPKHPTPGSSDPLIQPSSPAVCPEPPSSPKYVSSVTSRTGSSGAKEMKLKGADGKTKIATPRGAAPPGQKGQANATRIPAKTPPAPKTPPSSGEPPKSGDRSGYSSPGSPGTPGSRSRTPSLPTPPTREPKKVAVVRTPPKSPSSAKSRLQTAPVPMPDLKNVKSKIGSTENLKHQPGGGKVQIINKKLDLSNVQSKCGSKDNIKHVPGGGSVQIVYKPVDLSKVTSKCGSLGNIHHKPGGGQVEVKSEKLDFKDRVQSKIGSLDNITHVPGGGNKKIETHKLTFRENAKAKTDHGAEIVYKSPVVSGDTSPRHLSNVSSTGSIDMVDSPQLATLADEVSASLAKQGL", "test": "qHTS for Inhibitors of Tau Fibril Formation, Thioflavin T Binding; note: nearly all actives have a fitted effect of over 55% in size", "conditions": "recombinant tau K18 P301L, heparin-induced fibrillization, ThT fluorescence; series mostly up to 57.4 µM", "summary_of_the_method": "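Using a mix of unlabeled (15 uM) and Alexa 594-labeled (0.24 uM) tau K18 P301L, heparin-triggered fibrillization over 6 hr at 37 C was scored by ThT fluorescence.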", "values": [
      {"molecule": "Fc1ccc(/C=N/Nc2nc3ccccc3[nH]2)cc1F", "Potency": "inconclusive: 11.2 µM [inhibitor, partial curve]"},
      {"molecule": "CCC(=O)Nc1nn(C)c2nc3c(C)cccc3cc12", "Potency": "inconclusive: 15.8 µM [inhibitor, partial curve]"},
      {"molecule": "CCC(=O)N1c2ccccc2NC2=C(C(=O)CCC2)C1c1ccccc1", "note": "(stereo unspecified)", "Potency": "inconclusive: 17.8 µM [inhibitor, partial curve]"},
      {"molecule": "COc1cccc(CN2CCC(N(CCc3ccccc3)Cc3ccccc3)CC2)c1OC", "Potency": "inconclusive: 35.5 µM [inhibitor, single point]"},
      {"molecule": "CCOC(=O)c1ccc2[nH]c(C)c(CCC(C)=O)c(=O)c2c1", "Potency": "inconclusive: 4.47 µM [inhibitor, partial curve, poor fit]"},
      {"molecule": "CC(=O)N1CCc2cc(C(=O)CN3CCN(c4ccccc4F)CC3)ccc21", "Potency": "inconclusive: 8.91 µM [inhibitor, partial curve]"},
      {"molecule": "Cc1cccc(Cn2c(COc3ccc(Cl)cc3)nc3ccccc32)c1", "Potency": "inconclusive: 4.47 µM [inhibitor, single point]"},
      {"molecule": "CCOC(=O)N1CCN(C(=S)NC(=O)c2ccc(F)cc2)CC1", "Potency": "inactive"},
      {"molecule": "CCN(Cc1ccccc1)C(=O)c1cc2c(=O)[nH]c3ccc(C)cc3c2s1", "Potency": "inactive"},
      {"molecule": "O=C1c2ccccc2NC(c2ccc(-c3cccc([N+](=O)[O-])c3)o2)N1O", "note": "(stereo unspecified)", "Potency": "inconclusive: 25.1 µM [inhibitor, single point]"},
      {"molecule": "Cc1cc(C)c2cc(CN(CC3CCCO3)S(=O)(=O)c3ccc4c(c3)OCCO4)c(=O)[nH]c2c1", "note": "(stereo unspecified)", "Potency": "inconclusive: 3.98 µM [inhibitor, partial curve]"},
      {"molecule": "CN(CCc1cnn(C)c1)Cc1nc(CC2CC2)no1", "Potency": "inactive"},
      {"molecule": "CCOc1ccc(-c2nnc(SCC(=O)Nc3ccc(C)cc3Cl)o2)cc1", "Potency": "inactive"},
      {"molecule": "CC(/C=C1\\SC(=S)N(NS(=O)(=O)c2ccc(C)cc2)C1=O)=C\\c1ccccc1", "Potency": "active: 11.2 µM"},
      {"molecule": "CCC(=O)N1CCc2cc(CNC(=O)Cc3ccc(F)cc3)ccc21", "Potency": "inactive"},
      {"molecule": "S=c1[nH]nc(-c2ccco2)n1-c1cccc2ccccc12", "Potency": "inactive"},
      {"molecule": "CC1Cc2ccccc2N1S(=O)(=O)c1nnc(NC(=O)c2cccc(F)c2)s1", "note": "(stereo unspecified)", "Potency": "inconclusive: 6.31 µM [inhibitor, partial curve]"},
      {"molecule": "COC(=O)c1ccccc1NC(=O)c1cc(CN2CCCC2)on1", "Potency": "inactive"},
      {"molecule": "CCCCC(=O)N1CCN(c2ccc(OC)cc2[N+](=O)[O-])CC1", "Potency": "inconclusive: 22.4 µM [inhibitor, single point]"},
      {"molecule": "O=C(CSc1ncn(-c2ccccc2)n1)Nc1nc2ccccc2s1", "Potency": "inconclusive: 31.6 µM [inhibitor, partial curve]"},
      {"molecule": "Cc1cccc(OCCn2c(NC(=O)c3ccco3)nc3ccccc32)c1", "Potency": "inconclusive: 14.1 µM [inhibitor, partial curve]"},
      {"molecule": "COc1ccc(/C=C/C(=O)c2ccccc2O)cc1", "Potency": "inconclusive: 14.1 µM [inhibitor, partial curve] and inconclusive: 2.82 µM [inhibitor, partial curve, poor fit]"},
      {"molecule": "COc1cc([N+](=O)[O-])cc(/C=N/NC(=O)C(C)Nc2ccccc2C)c1O", "note": "(stereo unspecified)", "Potency": "inconclusive: 14.1 µM [inhibitor, partial curve]"},
      {"molecule": "O=C(Nc1sc2c(c1C(=O)Nc1cccc(Cl)c1)CCCC2)c1cccs1", "Potency": "active: 11.2 µM"},
      {"molecule": "Cn1c(-c2ccc(Br)cc2)cnc1NCc1cccnc1", "Potency": "inactive"},
      {"molecule": "Cn1nnnc1SCC(=O)c1ccco1", "Potency": "inactive"},
      {"molecule": "CC/C(=N/Nc1ccccc1)c1cnnc(SC)n1", "Potency": "active: 7.08 µM"},
      {"molecule": "N#CC1=C(Nc2ccc(Br)cc2)CCC1", "Potency": "inconclusive: 39.8 µM [inhibitor, single point]"},
      {"molecule": "CCOC(=O)CNc1ccc2c(c1)OCO2", "Potency": "active: 31.6 µM"},
      {"molecule": "Nc1nc(C(=O)N2CCOCC2)nn1C(=O)c1ccc(Cl)cc1", "Potency": "inconclusive: 3.16 µM [inhibitor, full curve, poor fit]"},
      {"molecule": "COc1ccc(C(=O)CCNc2ccc3c(c2)OCCO3)cc1", "Potency": "inconclusive: 22.4 µM [inhibitor, partial curve, poor fit]"},
      {"molecule": "O=C(NCC1CCCO1)C1CCC(=O)N1CCc1ccccc1", "note": "(stereo unspecified)", "Potency": "inactive"},
      {"molecule": "COc1ccc(Cl)cc1NC(=O)C(C)N(C)Cc1cccc(Cl)c1Cl", "note": "(stereo unspecified)", "Potency": "inactive"},
      {"molecule": "Cc1ccc(S(=O)(=O)NNc2nc3ccccc3nc2C(F)(F)F)cc1", "Potency": "inconclusive: 22.4 µM [inhibitor, partial curve]"},
      {"molecule": "O=c1/c(=C/c2ccc(CNS(=O)(=O)c3ccccc3)o2)sc2n1CCN=2", "Potency": "inconclusive: 5.01 µM [inhibitor, partial curve]"},
      {"molecule": "COCCCNC(=O)C(C#N)c1nc2ccccc2nc1N1CCCC1", "note": "(stereo unspecified)", "Potency": "inconclusive: 8.91 µM [inhibitor, partial curve]"},
      {"molecule": "Cc1cc(NC(=S)NC(=O)c2ccco2)c2ccccc2n1", "Potency": "inconclusive: 15.8 µM [inhibitor, single point]"},
      {"molecule": "CCn1c2ccccc2c2cc(NC(=S)N3CCOCC3)ccc21", "Potency": "inconclusive: 20 µM [inhibitor, partial curve]"},
      {"molecule": "Cc1cc([N+](=O)[O-])ccc1NCc1ccc2ccccc2c1", "Potency": "inconclusive: 5.62 µM [inhibitor, full curve]"},
      {"molecule": "O=C(CSc1nncn1-c1cccnc1)N(c1ccccc1)c1ccccc1", "Potency": "inactive"},
      {"molecule": "CC1CCCCC1NS(=O)(=O)c1ccc(S(=O)(=O)NCc2ccncc2)cc1", "note": "(stereo unspecified)", "Potency": "inconclusive: 31.6 µM [inhibitor, partial curve]"},
      {"molecule": "Cc1nn(S(=O)(=O)c2ccc(C(C)(C)C)cc2)c(C)c1S(=O)(=O)N1CCC(C)CC1", "Potency": "inactive"},
      {"molecule": "COc1ccc(/C=C2/CC/C(=C\\c3ccc(OC)c(OC)c3OC)C2=O)c(OC)c1OC", "Potency": "inconclusive: 2.24 µM [inhibitor, full curve]"},
      {"molecule": "Nc1nc(SCc2ccccc2Cl)ns1", "Potency": "inactive"},
      {"molecule": "O=C(CSCc1ccc(Cl)cc1)Nc1ccccc1C(=O)N1CCOCC1", "Potency": "inconclusive: 3.55 µM [inhibitor, full curve]"},
      {"molecule": "CC(C)(C)c1cc(CN(CCO)CCO)cc(C(C)(C)C)c1O", "Potency": "inconclusive: 31.6 µM [inhibitor, single point]"},
      {"molecule": "Cc1cc(N2CCOCC2)nc2ccc(NC(=O)CCC(=O)N3CCCC(C)C3)cc12", "note": "(stereo unspecified)", "Potency": "inconclusive: 12.6 µM [inhibitor, partial curve]"},
      {"molecule": "CCOC(=O)c1c(NC(=O)COc2ccc(C)cc2C(C)(C)C)sc2c1CCC(C)C2", "note": "(stereo unspecified)", "Potency": "inactive"},
      {"molecule": "COc1ccc(OC)c(CCNC(=O)c2cnn(-c3ccc(C)cc3C)c2C2CCN(C(=O)OC(C)(C)C)CC2)c1", "Potency": "inconclusive: 14.1 µM [inhibitor, partial curve]"},
      {"molecule": "COc1cccc2sc(NNC(=O)c3nc4ccccc4s3)nc12", "Potency": "active: 7.94 µM"},
      {"molecule": "Cc1cc(N=Nc2ccccc2)c(NCC(O)C(O)C(O)CO)cc1C", "note": "(stereo unspecified)", "Potency": "active: 14.1 µM"},
      {"molecule": "COc1ccc(C(=O)NNC(=O)C(=O)NC(C)c2ccccc2)cc1OC", "note": "(stereo unspecified)", "Potency": "inactive"},
      {"molecule": "Cc1ccc(-c2nnc(Nc3ccc(F)cc3)c3ccccc23)cc1S(=O)(=O)N1CCN(C)CC1", "Potency": "inactive"},
      {"molecule": "C/C(=N\\Nc1ccc2nncn2n1)c1ccc(Br)s1", "Potency": "inconclusive: 39.8 µM [inhibitor, single point]"},
      {"molecule": "Cc1ccc2nc(/C(C#N)=C\\c3ccc(N4CCOCC4)o3)[nH]c2c1", "Potency": "active: 12.6 µM"},
      {"molecule": "O=C(CSc1nc(O)c(Cc2ccccc2)c(=O)[nH]1)Nc1nc2c(s1)CCCC2", "Potency": "inconclusive: 20 µM [inhibitor, partial curve]"},
      {"molecule": "Cc1nc2c3cnn(-c4ccccc4)c3ncn2n1", "Potency": "inconclusive: 14.1 µM [inhibitor, partial curve]"},
      {"molecule": "CC(C)(C)c1[nH]nc2c1C(c1cccnc1)C(C#N)=C(N)O2", "note": "(stereo unspecified)", "Potency": "inconclusive: 31.6 µM [inhibitor, partial curve]"},
      {"molecule": "Cn1cc(C(=O)N/N=C/c2ccc3c(c2)OCO3)c2ccccc21", "Potency": "inconclusive: 1.12 µM [inhibitor, full curve]"},
      {"molecule": "COc1ccccc1N1CCN(/N=C/C=C\\c2ccco2)CC1", "Potency": "inconclusive: 15.8 µM [inhibitor, partial curve]"},
      {"molecule": "CCN1CCN(C(=O)C(C)Nc2cc(Cl)c(OC)cc2OC)CC1", "note": "(stereo unspecified)", "Potency": "inconclusive: 22.4 µM [inhibitor, partial curve]"},
      {"molecule": "Cc1cc(OC(C)C(=O)Nc2sc3c(c2C(N)=O)CCCC3)ccc1Cl", "note": "(stereo unspecified)", "Potency": "inactive"},
      {"molecule": "COc1ccc(S(=O)(=O)Nc2cc(S(=O)(=O)c3ccccc3)c(O)c(C)c2C)cc1", "Potency": "inactive"},
      {"molecule": "O=C1CCc2cc(S(=O)(=O)NC(Cc3ccccc3)C(=O)NCC3CCCO3)ccc2N1", "note": "(stereo unspecified)", "Potency": "inconclusive: 0.126 µM [inhibitor, full curve, poor fit]"},
      {"molecule": "CCN(CC)CCN(C)C(=O)CCc1nnc(-c2ccc(C)s2)o1", "Potency": "inactive"},
      {"molecule": "O=C(c1cc2nc(-c3ccco3)cc(C(F)(F)F)n2n1)N1CCN(c2ccc(F)cc2)CC1", "Potency": "inconclusive: 20 µM [inhibitor, partial curve]"},
      {"molecule": "COc1ccc(-c2cc3ccc(O)c(CN4CCC(C)CC4)c3oc2=O)cc1OC", "Potency": "inconclusive: 14.1 µM [activator, partial curve]"},
      {"molecule": "COC(=O)c1ccc(C2Nc3ccc(/C(C)=N/NC(=O)C(OC)c4ccccc4)cc3C3C=CCC32)cc1", "note": "(stereo unspecified)", "Potency": "inconclusive: 10 µM [inhibitor, partial curve]"},
      {"molecule": "Cc1cc(/C=C2/NC(=O)N(c3ccccc3)C2=O)c(C)n1-c1cccnc1", "Potency": "inconclusive: 17.8 µM [inhibitor, partial curve, poor fit]"},
      {"molecule": "CCc1cc2c(=O)n(Cc3ccco3)c(SCC(=O)NC3CCS(=O)(=O)C3)nc2s1", "note": "(stereo unspecified)", "Potency": "inactive"},
      {"molecule": "CC(CN1c2ccccc2Sc2ccccc21)N(C)C", "note": "(stereo unspecified)", "Potency": "inconclusive: 7.08 µM [inhibitor, partial curve]"}
    ]}
  ]
}
